In PubChem BioAssay AID504339 (National Center for Advancing Translational Sciences (NCATS), 2011):
About 17,000 (4.4%) of roughly 390,000 compounds were called active. The inconclusive results got no clear call from the source; some entries with a clear call stand among them for comparison. The call rests on the fitted dose curve; in most records, active means well fitted inhibition curve with a large enough effect; inconclusive means small, poorly fitted or top-dose-only effect; inactive means no such curve, though single readings can be large or run the other way. Where the call is inconclusive, the potency comes from a doubtful curve fit.

target: Lysine-specific demethylase 4A (Homo sapiens) (UniProt O75164); assay: qHTS Assay for Inhibitors of JMJD2A-Tudor Domain; conditions: AlphaScreen JMJD2A-Tudor / H3K4me3 peptide binding; activity change, negative = inhibition: at 114 µM (top of the series); further: nearly all actives have a fitted effect of over 50% in size
Chain of UniProt O75164 (O75164 whole entry, looked up, the tested form may be a part): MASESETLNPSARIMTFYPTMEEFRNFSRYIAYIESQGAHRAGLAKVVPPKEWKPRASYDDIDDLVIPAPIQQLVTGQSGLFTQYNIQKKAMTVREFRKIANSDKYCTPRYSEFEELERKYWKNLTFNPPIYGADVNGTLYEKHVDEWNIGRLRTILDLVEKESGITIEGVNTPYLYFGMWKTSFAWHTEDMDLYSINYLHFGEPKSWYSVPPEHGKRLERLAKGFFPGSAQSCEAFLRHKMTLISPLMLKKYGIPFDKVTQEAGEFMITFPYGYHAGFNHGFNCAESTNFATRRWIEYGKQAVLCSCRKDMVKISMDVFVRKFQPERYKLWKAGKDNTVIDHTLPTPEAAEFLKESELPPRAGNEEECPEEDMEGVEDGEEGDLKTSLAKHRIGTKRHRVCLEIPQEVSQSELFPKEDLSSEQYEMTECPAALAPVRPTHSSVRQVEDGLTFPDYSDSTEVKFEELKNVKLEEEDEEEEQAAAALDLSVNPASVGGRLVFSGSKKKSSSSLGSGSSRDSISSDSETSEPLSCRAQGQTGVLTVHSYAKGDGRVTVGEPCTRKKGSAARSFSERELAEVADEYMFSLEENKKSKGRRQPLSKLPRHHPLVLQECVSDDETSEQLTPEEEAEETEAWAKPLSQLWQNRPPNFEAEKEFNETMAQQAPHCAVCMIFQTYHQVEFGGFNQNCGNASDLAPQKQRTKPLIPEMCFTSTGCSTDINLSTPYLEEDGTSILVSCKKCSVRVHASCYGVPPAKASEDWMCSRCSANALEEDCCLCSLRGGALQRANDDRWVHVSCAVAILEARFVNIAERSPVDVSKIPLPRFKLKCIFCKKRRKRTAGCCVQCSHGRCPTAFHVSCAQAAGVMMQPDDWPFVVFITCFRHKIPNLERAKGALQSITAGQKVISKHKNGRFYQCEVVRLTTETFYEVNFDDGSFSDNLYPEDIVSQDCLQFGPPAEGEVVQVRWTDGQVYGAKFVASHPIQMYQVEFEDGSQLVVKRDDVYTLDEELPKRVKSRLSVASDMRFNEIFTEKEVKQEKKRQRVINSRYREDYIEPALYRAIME
On the % scale 0 is the no-effect control and ±100 the full control effect; potency means the concentration at half of the fitted maximal effect; tags describe the fitted curve by direction and shape.

| Compound | Potency | activity change, negative = inhibition |
| --- | --- | --- |
| Cc1[nH][nH]c(=O)c1C(c1c(C)[nH][nH]c1=O)c1cn(Cc2ccccc2Cl)c2ccccc12 | inconclusive: 25.1 µM [inhibitor, single point] | – |
| COc1ccc(-c2[nH]ncc2C(=O)NCc2ccccc2OC)cc1 | inactive | – |
| CCc1ccc(C2C(C#N)=C(N)SC(N)=C2C#N)cc1 | inconclusive: 79.4 µM [inhibitor, partial curve] | – |
| CCC1=C(OC(=O)N(CC)CC)N2C(=O)OC(=NCCc3c[nH]c4ccccc34)[C@]2(Cc2ccccc2)[C@H]2C1=CC[C@H]1C(=O)N(CC(=O)OC)C(=O)[C@H]12 | inconclusive: 31.6 µM [inhibitor, partial curve] | – |
| COc1ccc(/C=C2\SC(=S)N(C(C)C(=O)NC3C=CS(=O)(=O)C3)C2=O)cc1 (configuration not stated) | inconclusive: 56.2 µM [inhibitor, partial curve] | – |
| N#Cc1ccc(OCC(=O)NN2Cc3ccccc3C2=N)cc1 | inconclusive: 56.2 µM [inhibitor, partial curve] | – |
| CC(=O)Nc1ccccc1-c1nc2ccccc2n(C(C)C(=O)c2ccc(C)c(C)c2)c1=O (configuration not stated) | inconclusive: 50.1 µM [inhibitor, partial curve] | – |
| COc1ccc(OCc2nnc(SCC(=O)N(C)Cc3ccccc3)n2N)cc1 | inconclusive: 89.1 µM [inhibitor, single point] | – |
| CCN(c1ccccc1)S(=O)(=O)c1nnc(NC(=O)COc2ccccc2F)s1 | inconclusive: 3.16 µM [inhibitor, full curve] | – |
| NS(=O)(=O)c1ccc(NC(=S)N2CCN(Cc3ccc(Cl)c(Cl)c3)CC2)cc1 | inconclusive: 79.4 µM [inhibitor, partial curve] | – |
| NC(N)=N/N=C/c1ccc(OCc2ccccc2Cl)cc1 | inconclusive: 28.2 µM [inhibitor, partial curve, poor fit] | – |
| C[C@@H]1CN([C@@H](C)CO)C(=O)c2cc(NC(=O)Nc3ccc4c(c3)OCO4)ccc2O[C@H]1CN(C)S(=O)(=O)c1ccc(F)cc1 | inconclusive: 22.4 µM [inhibitor, full curve] | – |
| CCOC(=O)c1ccc(NC(=O)c2ccc3c(c2)CCN3S(=O)(=O)c2ccc(Cl)cc2)cc1 | inactive | – |
| O=C(Nc1cccc(C(F)(F)F)c1)c1cnc2n(c1=O)CCS2 | inconclusive: 100 µM [inhibitor, partial curve] | – |
| O=C(CCCN1C(=O)/C(=C\c2cccc(Br)c2)SC1=S)Nc1cccnc1 | inconclusive: 44.7 µM [inhibitor, partial curve] | – |
| Cc1ccc(-n2nc(CO)c(C(=O)NCCO)n2)cc1 | inactive | – |
| Cc1ccc(OCCCN2CCOCC2)cc1 | active: 10 µM | – |
| COc1ccc2c(c1)OC[C@H]1[C@H]2N2C(=O)CNC(=O)[C@@]2(C)[C@H]1c1ccccc1 | inconclusive: 89.1 µM [inhibitor, single point] | – |
| CCOC(=O)c1c(NC(=O)C2CC=CCC2C(=O)O)sc(C)c1CC (configuration not stated) | inconclusive: 22.4 µM [inhibitor, full curve] | – |
| Cc1nc(CN(C)c2ncnc3ccc(-c4ccc5c(c4)OCO5)cc23)cs1 | active: 89.1 µM | – |
| C#CCOCCOCCOCCNc1nc(N2CCN(C(=O)C([C@@H](C)O)n3cc([C@@H](N)CCCCN)nn3)CC2)nc(N2CCN(C(=O)[C@H](CCC(=O)O)n3cc([C@@H](N)[C@H](C)CC)nn3)CC2)n1 (some centres not stated) | active: 89.1 µM | – |

| Compound | Potency | activity change, negative = inhibition |
| --- | --- | --- |
| NC(=O)[C@H]1CC2(CC(c3cccc(NC(=O)CC(c4ccccc4)c4ccccc4)c3)=NO2)CN1C(=O)CC(c1ccccc1)c1ccccc1 (some centres not stated) | inconclusive: 50.1 µM [inhibitor, partial curve] | – |
| CC1=Nc2ccccc2/C1=C\c1nc(-c2ccccc2)oc1O | inconclusive: 20 µM [inhibitor, full curve] | – |
| COc1ccccc1CP(=O)(c1ccccc1)c1ccccc1 | inactive | – |
| O=C(Cc1nnc(CNC(=O)c2ccccc2)s1)Nc1ccc(C(F)(F)F)cc1Cl | inactive | – |
| CC1(C)Cc2c(c(N3CCOCC3)nc3sc(C(=O)N4CCCCC4)c(N)c23)CO1 | inconclusive: 44.7 µM [inhibitor, partial curve] | – |
| CN1/C(=C/C2CC(=O)NC2=O)C(C)(C)c2ccccc21 (configuration not stated) | inactive | – |
| COc1ccc2c(CC(=O)N3CCN(S(=O)(=O)c4ccc(F)cc4)CC3)coc2c1 | inconclusive: 56.2 µM [inhibitor, partial curve] | – |
| Cc1ccc(C(=O)N/N=C/c2ccoc2)cc1C | inconclusive: 50.1 µM [inhibitor, partial curve] | – |
| CNC(=O)c1[nH]cnc1C(=O)Nc1ccc(C)cc1 | inconclusive: 14.1 µM [inhibitor, full curve, poor fit] | – |
| CCOC(=O)Cc1cnc(NC(=O)Cn2nnc(-c3ccc(OCC)cc3)n2)s1 | – | inactive: -0.685% [at 11.4 µM] |
| Cc1ccc(C(=O)c2ccccc2C(=O)OCC(=O)Nc2cccc([N+](=O)[O-])c2)cc1 | inconclusive: 50.1 µM [inhibitor, partial curve] | – |
| C#CCOCCOCCOCCNc1nc(N2CCN(C(=O)[C@H](CCCCN)n3cc([C@@H](N)[C@H](C)CC)nn3)CC2)nc(N2CCN(C(=O)[C@H](CCC(=O)O)n3cc([C@@H](N)CCCCN)nn3)CC2)n1 | inconclusive: 89.1 µM [inhibitor, partial curve] | – |
| N#Cc1ccc(C23CC4(C2)[C@H](CN(P(=O)(c2ccccc2)c2ccccc2)[C@@H]4c2ccccc2)C3c2ccc(Cl)nc2)cc1 (some centres not stated) | inconclusive: 56.2 µM [inhibitor, partial curve] | – |
| Cc1ccccc1CCNCc1c(C(=O)O)c(C)n(Cc2c(F)cccc2Cl)c1C | inactive | – |
| COC(=O)c1cc(=O)n(CCc2ccc(OC)c(OC)c2)c(=Nc2ccc(F)c(Cl)c2)s1 | inconclusive: 12.6 µM [inhibitor, full curve] | – |
| CNc1nc(N/N=C/c2ccc([N+](=O)[O-])cc2)nc(Nc2ccccc2)n1 | inconclusive: 28.2 µM [inhibitor, single point] | – |
| CSc1ccc(/C=C/C(=O)c2c(O)cc(C)oc2=O)cc1 | inconclusive: 89.1 µM [inhibitor, partial curve] | – |
| COC(=O)NC1c2ccccc2Oc2ccc(C)cc21 (configuration not stated) | inactive | – |
| O=C(COC(=O)C1Cc2ccccc2CN1C(=O)c1ccccc1Cl)Nc1ccc(N2CCOCC2)cc1 (configuration not stated) | inconclusive: 25.1 µM [inhibitor, full curve] | – |
| NC(=S)NNc1c(F)c(F)c(F)c(F)c1F | inconclusive: 11.2 µM [inhibitor, full curve] | – |
| CC(=O)c1ccc(N2CCN(C(=O)Cn3ncc4c3-c3ccccc3OC4)CC2)cc1 | inactive | – |

| Compound | Potency | activity change, negative = inhibition |
| --- | --- | --- |
| O=C(Oc1cccc([N+](=O)[O-])c1)c1cc(-c2ccccc2)nc2ccccc12 | inconclusive: 39.8 µM [inhibitor, partial curve] | – |
| CCOc1cc(/C=C2/C(=N)N3C(=NC2=O)SN=C3S(C)(=O)=O)ccc1OC(=O)c1ccco1 | inconclusive: 50.1 µM [inhibitor, partial curve] | – |
| CCCCCCSc1ccc([C@@H]2[C@H]3C(=O)N(CC)C(=O)[C@H]3[C@]3(C(=O)OC)CCCN23)cc1 | inconclusive: 56.2 µM [inhibitor, partial curve] | – |
| COc1ccc(O)c(C(=O)c2cnc3onc(C(C)C)c3c2)c1 | inconclusive: 56.2 µM [inhibitor, partial curve] | – |
| O=C(CCN1C(=O)/C(=C\c2cccs2)SC1=S)Nc1ccc(C(=O)O)cc1 | inconclusive: 56.2 µM [inhibitor, partial curve] | – |
| COC(=O)C(Cc1c[nH]c2ccccc12)NC(=O)c1cc(-c2ccc(OC)c(OC)c2)oc1C (configuration not stated) | active: 50.1 µM | – |
| CCCCC1=CC2=C(c3ccco3)C(=O)C(C)(OC(=O)c3ccc(OC)cc3)C(=O)C2=CN1c1ccc(OC)cc1 (configuration not stated) | inconclusive: 56.2 µM [inhibitor, partial curve] | – |
| CCN(C(=O)Cc1c(C(=O)O)[nH]c2ccccc12)c1cc(OC)ccc1OC | inconclusive: 100 µM [inhibitor, single point] | – |
| CN(C1CCCCC1)S(=O)(=O)CCNC(=O)c1ccccc1 | inactive | – |
| COC(=O)C1CCN(C(=O)CSc2nc3ccc(OC)cc3[nH]2)CC1 | inactive | – |
| O=C(O)c1cccnc1SC1CC(=O)N(Cc2ccccc2)C1=O (configuration not stated) | – | inactive: -14.5% [at 11.4 µM] |
| COc1ccccc1C(=O)N/C(=C/c1ccc(Br)cc1)C(=O)N1CCCC1 | active: 50.1 µM | – |
| O=C(COC(=O)c1ccc(Cl)nc1)Nc1cccc(S(=O)(=O)N2CCCCC2)c1 | inactive | – |
| C=CCN(c1ccccc1)S(=O)(=O)c1cccc(C(=O)NC2CCN(Cc3ccccc3)CC2)c1 | inactive | – |
| Cc1nnc(SCc2ccccc2Cl)c2cc3occc3n12 | inconclusive: 14.1 µM [inhibitor, full curve] | – |
| O=C1c2ccccc2C(O)(c2ncc[nH]2)N1C1CCCCC1 (configuration not stated) | inconclusive: 22.4 µM [inhibitor, full curve] | – |
| COC(=O)c1ccc(NC(=O)CSc2nn3c(=O)c(C)nnc3s2)cc1 | inconclusive: 89.1 µM [inhibitor, single point] | – |
| Cc1cc(Nc2ccc(C(C)C)cc2)nc(-n2nc(C)cc2C)n1 | inconclusive: 10 µM [inhibitor, full curve, poor fit] | – |
| CC1=C(C(=O)Nc2cc(C(=O)N3CCN(c4cccc(C)c4)C(C)C3)ccc2C)SCCO1 (configuration not stated) | inconclusive: 63.1 µM [inhibitor, partial curve] | – |
| O=C(COc1ccccc1[N+](=O)[O-])N/N=C/c1cccc(OC(=O)c2ccc3c(c2)OCO3)c1 | inconclusive: 70.8 µM [inhibitor, partial curve, poor fit] | – |
